Test results as given in PubChem BioAssay AID2675 (National Center for Advancing Translational Sciences (NCATS), 2010).
Out of some 280,000 compounds screened, about 100 (0.036%) were called active. Inconclusive results, whose numbers are uncertain, are shown with a selection of clear calls. Calls follow the shape of the dose curve; as a rule, active = well fitted inhibition curve with a large enough effect in the signal ratio, with a control signal flat (not every such curve was filed as active); inconclusive = small, poorly fitted or top-dose-only effect, or effect the other way, or a change in a side signal; inactive = no such curve, though single readings can be large or run the other way; the % refers to the signal ratio. Where the call is inconclusive, the potency comes from a doubtful curve fit. A note “side channel” means that the fit belongs to a control or component signal, not to the main read-out.

Biological target: Muscleblind-like protein 1 (Homo sapiens) (UniProt Q9NR56)
Assay: qHTS Assay for Inhibitors of MBNL1-poly(CUG) RNA binding
Conditions: TR-FRET MBNL1-His/biotin-(CUG)12 binding, 665/545 ratio; series mostly up to 57.5 µM
Method in brief: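 Ratiometric TR-FRET (665 over 545 nm, excitation 340 nm) tracks disruption of MBNL1-His/biotin-(CUG)12 complex after 60 min at room temperature, with compounds at 92 nM to 58 uM final.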
Potency is read from the fitted curve at half-maximal effect; tags tell the direction and shape of the fitted curve or compound fluorescence and quenching.

UniProt Q9NR56, sequence (Q9NR56 whole entry, looked up): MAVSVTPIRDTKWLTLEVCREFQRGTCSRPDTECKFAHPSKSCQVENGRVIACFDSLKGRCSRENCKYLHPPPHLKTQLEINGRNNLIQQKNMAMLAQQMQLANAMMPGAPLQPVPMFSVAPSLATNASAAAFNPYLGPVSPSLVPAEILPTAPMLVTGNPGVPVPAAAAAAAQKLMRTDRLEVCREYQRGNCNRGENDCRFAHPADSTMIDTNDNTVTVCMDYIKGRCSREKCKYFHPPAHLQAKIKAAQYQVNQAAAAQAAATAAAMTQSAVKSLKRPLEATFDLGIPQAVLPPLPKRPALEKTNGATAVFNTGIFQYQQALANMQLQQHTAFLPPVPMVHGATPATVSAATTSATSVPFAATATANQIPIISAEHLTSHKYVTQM

Structure (SMILES)	Potency
O=C(O)CN1CCCCC1	inconclusive: 7.94 µM [inhibitor, single point]
O=C(c1ccc(S(=O)(=O)c2cccc(Cl)c2)c([N+](=O)[O-])c1)N1CCN(c2ccccn2)CC1	inconclusive: 31.6 µM [quencher, side channel, single point]
O=c1/c(=C/c2ccc(O)cc2)sc2n1CCCN=2	inconclusive: 15.8 µM [quencher, side channel, partial curve]
Cc1ccc(OCc2n[nH]c(=S)n2N)cc1C	inactive
O=C(CSc1nnc(NC(=O)c2ccccc2Cl)s1)Nc1ccc2c(c1)oc1ccccc12	inconclusive: 3.55 µM [quencher, side channel, single point]
COc1ccc(N2CCN(CCCNS(=O)(=O)c3c(C)noc3/C=C/N(C)C)CC2)cc1	inconclusive: 39.8 µM [quencher, side channel, single point]
N#C/C(=C\c1ccco1)c1nc2ccccc2s1	inconclusive: 5.01 µM [quencher, side channel, full curve]
CC(=O)Nc1nn(C)c2nc3ccc(C)cc3cc12	inconclusive: 20 µM [quencher, side channel, partial curve]
Cc1occc1C(=O)N/N=C/c1c[nH]c2ccccc12	inconclusive: 39.8 µM [quencher, side channel, single point]
O=C(CC(=O)N/N=C/c1c(F)cccc1Cl)NCCc1ccccc1	inactive
Cc1ccc2nc3c(cc(C(=O)NCc4ccco4)c(=N)n3Cc3ccco3)c(=O)n2c1	inconclusive: 2 µM [quencher, full curve]
CC(=O)Nc1ccc(NC(=O)c2ccc(-c3ccc([N+](=O)[O-])cc3)o2)cc1	inconclusive: 0.562 µM [quencher, side channel, full curve, poor fit]
O=[N+]([O-])c1ccc(O)c(C=Nc2cccc3ncccc23)c1	inconclusive: 15.8 µM [quencher, side channel, partial curve]
Cc1cccc(C)c1OCCCCc1c(C)n[nH]c1C	inactive
CCn1c(=O)cc(OCC(=O)Nc2cc(C)ccn2)c2ccccc21	inconclusive: 39.8 µM [quencher, side channel, single point]
Clc1ccc(/C=N/c2c(-c3ccco3)nc3ccccn23)cc1	inconclusive: 39.8 µM [quencher, side channel, partial curve]
C[n+]1ccccc1/C=C/c1ccc([N+](=O)[O-])cc1	inconclusive: 15.8 µM [quencher, side channel, partial curve]
